Experimental data as given in PubChem BioAssay AID485344 (National Center for Advancing Translational Sciences (NCATS), 2010).
Hit rate of the full screen: of about 340,000 compounds, about 6,900 (2%) were called active. Rule as the data show it: active = inhibition above about 30%; inactive = below that, where a call was filed. The list shows a part of the results, in another mix than the full data. Where no call is shown, the source filed none.

Target: D(2) dopamine receptor (Homo sapiens) (UniProt P14416)
UniProt P14416, sequence (P14416 whole entry, looked up): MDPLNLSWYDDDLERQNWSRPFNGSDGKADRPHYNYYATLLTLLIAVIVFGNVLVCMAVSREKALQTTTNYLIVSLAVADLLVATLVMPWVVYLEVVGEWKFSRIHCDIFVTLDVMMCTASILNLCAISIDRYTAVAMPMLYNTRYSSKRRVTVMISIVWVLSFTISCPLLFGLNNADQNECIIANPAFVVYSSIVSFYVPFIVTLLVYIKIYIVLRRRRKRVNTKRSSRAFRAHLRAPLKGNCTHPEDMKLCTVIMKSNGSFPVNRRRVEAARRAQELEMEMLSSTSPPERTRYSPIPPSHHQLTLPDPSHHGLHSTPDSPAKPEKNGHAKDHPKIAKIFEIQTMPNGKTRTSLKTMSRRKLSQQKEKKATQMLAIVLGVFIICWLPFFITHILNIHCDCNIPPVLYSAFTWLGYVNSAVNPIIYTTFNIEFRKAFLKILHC
Assay: HTS Assay for Allosteric Antagonists of the Human D2 Dopamine Receptor: Primary Screen for Antagonists; also: 0% is about no effect
Conditions: HEK293 TREx D2 cells, calcium flux, dopamine EC80; at 10 µM; stronger effect = higher value
Method in brief: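 Measurement of antagonist activity uses fluorescent calcium dye in inducible HEK293 T-REx D2 cells: 10 s baseline, compound addition with 180 s read, EC80 dopamine addition with a further 180 s read.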

Compound	inhibition
CCc1ccc(-n2c(=O)c3c4c(sc3n(Cc3cc(=O)n5c(C)cccc5n3)c2=O)CCC4)cc1	10.1%
CCOC(=O)c1[nH]c2c(c1Cc1ccccc1OC)C(=O)CC(c1ccc(OC)cc1)C2 (stereo not given)	-7.79%
CCOC(=O)c1ccccc1NC(=O)Cn1ncc2c1-c1ccccc1OC2	-8.08%
Cc1cc(C)cc(NC(=O)CSc2oc(-c3ccccc3)nc2S(=O)(=O)c2ccc(Cl)cc2)c1	3.87%
Cc1ccc(NC(=O)Cn2nc(C(F)(F)F)c3c2CCCC3)cc1C	-6.56%
O=C(Cn1c(=O)n(CCc2ccccc2)c(=O)c2cccnc21)Nc1ccc(F)cc1	-10.5%
CCCCNC(=O)C1CCC(Cn2c(=O)c3sccc3n(Cc3ccccc3)c2=O)CC1 (stereo not given)	14.1%
Cc1cc(C)c(NC(=O)c2nc3ccccc3nc2N2CCCCC2)c(C)c1	-1.92%
CCC(=O)N1CCc2cc(S(=O)(=O)NC(C(=O)NCCc3ccc(OC)c(OC)c3)C(C)C)ccc21 (stereo not given)	-16.3%
CCCCNC(=O)CSc1nc2cc3c(cc2c(=O)n1CCCC(=O)NCCc1ccc(OC)c(OC)c1)OCO3	-5.9%
CC1=C(C(=O)OC2CCCC2)C(c2c(Cl)cccc2Cl)CC(=O)N1 (stereo not given)	-2.79%
Cc1cc(C(=O)N2CCN(c3ccccc3)CC2)c2c(C)nn(-c3cccc(F)c3)c2n1	4.98%
COc1cc(NC(=O)C2CCN(C(=O)c3sc4nc[nH]c(=O)c4c3C)CC2)cc(OC)c1OC	-18.8%
CCC(C)NC(=O)c1c(C)oc2ncn(CC(C)C)c(=O)c12 (stereo not given)	-0.372%
COc1ccc(-c2nc3ccccc3n3c(-c4cccc(C)c4)c4c(=O)n(C)c(=O)n(C)c4c23)cc1OC	20.1%
O=C(CCS(=O)(=O)c1cc(Br)cc2c1N(C(=O)C1CC1)CC2)N1CCN(c2cccc(Cl)c2)CC1	14.9%
CCc1cccc(OCC(=O)Nc2ccc(S(=O)(=O)Nc3ncccn3)cc2)c1	13.5%
CCOc1ccccc1NC(=O)C1CCN(S(=O)(=O)c2ccc3[nH]c(=O)oc3c2)CC1	3.48%
CC1CCc2c(cc(-c3ccccc3)n2-c2ccc(C(=O)NC(C)C)cc2)C1 (stereo not given)	-3.46%
Cc1cc(C)c(OCCCCN(C)Cc2ccccc2)c(C)c1	active: 33.3%
Cc1cccc(C)c1OCc1nc2c3cnn(-c4ccccc4F)c3ncn2n1	-16.3%
CC(C)(C)c1ccc(OCc2nc3ccccc3n2CCOc2ccccc2)cc1	-3.7%
O=S(=O)(c1ccc(Cl)cc1)n1cccn1	active: 40.4%
COc1cccc(NC(=O)CSc2nc3c([nH]c4ccccc43)c(=O)n2-c2cc(C)cc(C)c2)c1	1.13%

Compound	inhibition
CC(=O)c1ccc(S(=O)(=O)N2CCn3cccc3C2c2ccccc2F)cc1 (stereo not given)	-6.34%
Cc1cc(C)cc(NC(=O)Cc2csc(C)n2)c1	14.6%
COc1ccccc1CNC(=O)c1cc2c(=O)oc3ccc(C)cc3c2s1	14.7%
COc1ccc(CNC(=O)c2cc3c(=O)n(Cc4cccnc4)ccc3nc2C)cc1	20.5%
COc1ccccc1CCNC(=O)Cc1ccc(NC(=O)N2CCSc3ncccc32)cc1	-1.53%
Cc1ccc2oc(-c3ccc(Cl)c(NC(=O)Cc4ccccc4)c3)nc2c1	-2.23%
CCCNS(=O)(=O)c1cc(-c2nn3c(C)nnc3c3ccccc23)ccc1C	-0.217%
Cc1ccc(-n2c(=O)c3c4c(sc3n(Cc3cc(=O)n5cc(Cl)ccc5n3)c2=O)CCC4)cc1C	-2.21%
CCOC(=O)c1ccccc1NC(=O)CN(c1cccc(C)c1C)S(=O)(=O)c1ccccc1	-1.33%
CCc1ccc(-c2nn(CC(=O)NC3CCCCC3)c3c2cnc2ccc(F)cc23)cc1	-3.69%
CC(=O)N1CCCc2cc(S(=O)(=O)N3CCCC(C(=O)NCc4ccccc4Cl)C3)ccc21 (stereo not given)	5.68%
COc1ccc(-c2ccc(-c3nnc(Cc4ccc(OC)c(OC)c4)o3)cc2)cc1	active: 30.3%
CCC(C(=O)NCCc1ccccc1)n1nc(C)c2sc3ccccc3c2c1=O (stereo not given)	9.67%
COc1ccc(C2=C(C)C(N3CCC(C(=O)Nc4ccccc4F)CC3)=NS2(=O)=O)cc1	2.63%
O=C(C1CCN(c2ncnc3c2nc2n3CCCCC2)CC1)N1CCN(c2ccccc2F)CC1	15.8%
CCOc1ccc2oc(=O)cc(CN3CCN(C(=O)c4ccc(OC)c(OC)c4)CC3)c2c1	20%
CCSc1ncc(Cl)c(C(=O)Nc2nnc(CC)s2)n1	4.14%
Cc1cccc(NC(=O)CSc2ncc(-c3ccccc3)[nH]2)c1C	-14.8%
Cc1cccc(Nc2nc(N)nc(N)c2S(=O)(=O)c2ccccc2)c1	-2.27%
O=C(c1ccccc1F)N1c2ncnn2C2(CCCCC2)[C@@H]2CCCC[C@@H]21	9.32%
Cc1cccc(Cn2c(=O)n(Cc3ccccc3)c(=O)c3c2c2cc(C)ccc2n3C)c1	19.2%
CC(=O)c1ccc(NS(=O)(=O)c2c(C)nc3scc(C)n3c2=O)cc1	-5.97%
CCOC(=O)c1sc2ccccc2c1S(=O)(=O)Nc1ccc(C(C)=O)cc1	5.65%
CCn1cc(C(=O)NCCc2ccc(OC)c(OC)c2)c(=O)c2cc(S(=O)(=O)N3CCCCCC3)ccc21	-5.37%

Compound	inhibition
CSc1ncc(C(=O)Nc2ccc(C)c(Cl)c2)c(-c2ccccc2)n1	10.5%
CCc1ccc(N(CC)C(=O)Cn2nc(Cc3cccnc3)c3ccccc3c2=O)cc1	-1.31%
CCOC(=O)c1cc(C)n(CC2CCC(C(=O)Nc3ccccc3OC)CC2)c1C (stereo not given)	-0.535%
COc1ccccc1NC(=O)c1oc2ccccc2c1NC(=O)COc1cccc(C)c1	5.57%
COc1ccc(Cl)cc1NC(=O)N(C)CCc1c(C)nn(C)c1C	13.1%
Cc1ccc2oc(-c3ccc(C)c(NC(=O)C(C)(C)Oc4ccc(Cl)cc4)c3)nc2c1	7.56%
O=C1N(Cc2ccccc2Cl)c2ccccc2C1(O)c1c[nH]c2ccccc12 (stereo not given)	-2.45%
CC1=C(C(=O)OCC2CCCCC2)C(c2ccc(Cl)cc2)CC(=O)N1 (stereo not given)	-13.3%
Cc1nonc1OCCN1CCN(c2ccccc2[N+](=O)[O-])CC1	active: 53.4%
Cc1ccc(CN(Cc2ccco2)C(=O)c2oc3cc(Br)ccc3c2C)cc1	16.4%
Clc1ccccc1-c1nnc(COc2ccccc2)o1	1.79%
Cc1nc2nc(NC(=O)c3ccc(C(C)(C)C)cc3)[nH]n2c(=O)c1Cc1ccccc1	22.2%
CCOC(=O)c1ccc(NC(=O)CSc2nc3cc4ccccc4cc3[nH]2)cc1	0.967%
COc1ccc(CNC(=O)Cn2ccc3cc(S(=O)(=O)N4CCCCC4)ccc32)cc1OC	-15.1%
Cc1ccc(-n2c(=O)c3c4c(sc3n(Cc3cc(=O)n5ccccc5n3)c2=O)CCC4)cc1C	5.17%
Cn1c(=O)c2c(nc(-n3ccnc3)n2Cc2ccc([N+](=O)[O-])cc2)n(C)c1=O	active: 30.6%
COc1ccc(OC)c(NC(=O)CN2C(=O)CC(C)Sc3ccccc32)c1 (stereo not given)	-2.07%
CCOc1ccc(NC(=O)CSc2oc(-c3ccc(F)cc3)nc2S(=O)(=O)c2ccc(C)cc2)cc1	-6.62%
O=C(CCOc1ccccc1)N(Cc1cccnc1)c1nc2ccc(Cl)cc2s1	22%
CCC(C(=O)Nc1cccc(-c2nc3cccnc3s2)c1C)c1ccccc1 (stereo not given)	11.5%
COc1ccc(-n2cc(C(=O)NCCc3cc(OC)ccc3OC)c3ccccc3c2=O)cc1	-11.1%
CC(C)CC(=O)Nc1nnc(S(=O)(=O)N(C)Cc2ccc(Cl)cc2)s1	2.29%
CC1=C(C(=O)Nc2ccc(C)cc2C)C(c2cccs2)n2nc(SCc3cccc(C)c3)nc2N1 (stereo not given)	4.42%
CNC(=O)CSc1cn(CC(=O)N2CCCCCC2)c2ccccc12	24.4%

Compound	inhibition
OCC1CCCCN1CC(O)COC(c1ccc(F)cc1)c1ccc(F)cc1 (stereo not given)	active: 30.6%
COc1cccc(CNC(=O)Cn2nc(-c3ccc(Cl)cc3)ccc2=O)c1	3.75%
Cc1cccc2c1N(Cc1ccccc1OCCC(C)C)C(=O)C2=O	15.5%
CC(=O)c1ccc(NC(=O)c2cc(C)nc3c2c(C)nn3-c2ccc(C)cc2)cc1	-5.79%
COc1ccc(-n2c(=O)c3c(c4cc(OC)ccc4n3C)n(Cc3cccc(C)c3)c2=O)cc1	-11.5%
CC(=O)c1ccc(N2CCN(c3ncnc4c3c(-c3ccccc3)cn4-c3ccc(Cl)cc3)CC2)cc1	-3.79%
CC(C)NS(=O)(=O)c1ccc(OCC(=O)N2CCc3ccccc3C2)cc1	active: 30.4%
C(=N\Nc1nc2ccccc2s1)/c1cccs1	active: 37.5%
CCCCSc1nnc2n(-c3ccc(OC)cc3)c(=O)c3c4c(sc3n12)COC(C(C)C)C4 (stereo not given)	-26%
CC1(C(=O)NCc2ccc(F)cc2)Oc2ccccc2NC1=O (stereo not given)	active: 75.8%
CCOC(=O)c1cc(S(=O)(=O)Nc2cc(F)ccc2C)[nH]n1	-13.4%
CCOC(=O)N1CCc2c(sc3c2C(=O)NC(c2cc(OC)c(OC)c(OC)c2)N3)C1 (stereo not given)	19.4%
COc1ccccc1NC(=O)c1c(NCc2ccc(C)o2)sc2c1CCCCC2	14%
COc1ccc(-c2cc(C(F)(F)F)n3nc(-c4ccccc4)cc3n2)cc1OC	-7.15%
CCc1ccc(NC(=O)Cn2c(=O)n(CCC(C)C)c(=O)c3cccnc32)cc1	-1.27%
CC(=O)Nc1nonc1-c1nnc(SCc2ccccc2F)n1C	6.6%
CCc1ccccc1NS(=O)(=O)c1ccc2c(c1)CC(=O)N2	-8.29%
Cc1ccc(NC(=O)C2CCCN(C(=O)c3cnn(-c4ccc(F)cc4)c3-n3cccc3)C2)c(Cl)c1 (stereo not given)	7.97%
O=C(CSc1ccc(-c2cccs2)nn1)Nc1ccccc1C(F)(F)F	-2.06%
COc1ccc(-n2c(-c3ccco3)nc3c(cnn3-c3ccc(Cl)cc3)c2=O)cc1	2.25%
O=C(NCCc1ccccc1Cl)C1CCN(c2nc3ccccc3nc2C(F)(F)F)CC1	0.154%
CCOc1ccc(/C=C/c2nc(C#N)c(NCc3ccccc3)o2)cc1	-1.56%
O=C(CCC1N=C2c3ccccc3N=C(SCc3ccc(F)cc3)N2C1=O)NCCc1ccccc1 (stereo not given)	6.77%
